± gives the standard deviation of the averaged measurements. Some of the results follow.
Tested on: PfAP2-I AP2 domain 3 (GST-tagged)
Test: gcPBM binding intensity (ln(normalized median fluorescence intensity)); higher = stronger DNA binding
Summary of the method: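 Binding intensity values are the highest Masliner-normalised natural-log median intensity among replicate spots of either probe orientation. The binding step lasted 1 h in 1× PBS with 1% milk, 0.2 mg/ml BSA, 0.5% salmon testes DNA and 0.03% Triton X-100, using GST-tagged P. falciparum DNA-binding domains expressed in E. coli on an Agilent 4 × 180k array of primer-extended double-stranded 36-bp intergenic genomic probes plus negative controls. Alexa488 anti-GST antibody and a 488 nm scan detected bound protein.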

Sequence	gcPBM binding intensity (ln)
AAAAATTGAATTTTTTTTTTTTTTTTGAGAAGGAAA [CACACA_negctrl_site1196]	7.3 ± 0.52
AATATTTTTGTCGTTAGTACATAAAAAATAATAATA [XGTACX_site3074]	7.73 ± 0.44
TTATTATTAAAAAAAAGTACAGAATTGAATAATACA [XGTACX_site651]	7.89 ± 0.39
TTTTAATTTATTAATTGTACATGTATTTTAAGATTA [XGTACX_site8417]	7.64 ± 0.28
TAAACATTTGGCTGATGTACTTGCTACCTTAAATCA [XGTACX_site5514]	7.32 ± 0.59
ATTTTTGTGTATTAATGTACTTTATGCATATTTGAC [XGTACX_site3353]	9.74 ± 0.78
TATTTTTATAAGTAAAAGGAGCACAGTTAAAGGATC [XGTACX_negctrl_site362]	8.5 ± 0.4
TTTTAAATATGAACATGTACATGTAAATTTACATGT [XGTACX_site4573]	7.83 ± 0.45
TTTATAAAAATGAACACACACATATAAATATAAATA [CACACA_site7607]	7.74 ± 0.47
AAAAATAGAATAAATACACACCCGTGTAACGGATTT [CACACA_site3372]	7.29 ± 0.93
AATAATATATTTAGGGGTACATAATAATATATTTTA [XGTACX_site8366]	8.08 ± 0.028
GATAAATTAAGACACACACACATATATTTATTTATA [CACACA_site7789]	8.06 ± 0.5
TAGTATTAGATATATACACACATATATACCTATAGA [CACACA_site7083]	7.41 ± 0.57
TTACGATCATCAATATGTACATATATATATATATAT [XGTACX_site4301]	9.21 ± 0.17
ATTTTTTTTTTTATAGTGGATCCACATTTGCCATTT [CACACA_negctrl_site1106]	8.09 ± 0.78
AATATTTATATTTACACACACATAATACATCTATGT [CACACA_site4187]	7.84 ± 0.54
TATAAAAAAATATTATAATATATATATATATATATA [XGTACX_negctrl_site41]	9.21 ± 0.32
TATAAATAAAGATATACACACATATAAATATTTTTC [CACACA_site7798]	7.55 ± 0.44
TTGGTCTTTTAAAAAAGTACAAAAAAAAAAAAAAAA [XGTACX_site1665]	8.13 ± 0.35

Sequence	gcPBM binding intensity (ln)
AAAAAAAAGTTAAGCACACACATGAATAAATAATAC [CACACA_site840]	8.52 ± 0.46
TTAACCGGTTTATGGGTGCACATTCTTCTTAAATAA [GTGCAC_site9928]	10.4 ± 0.32
CCTAGAAAAGTATATACACACGCGCAAAATAAAATT [CACACA_site1413]	8.31 ± 0.69
CATGTTCATCAGAACGCACACATAATGGTTTACTTA [CACACA_site898]	8.05 ± 0.48
AGTAACTAATTAAATGCATGTCGATATATATTATAT [TGCATGCA_site1038]	7.82 ± 0.68
GTGTATATGTATATATGTACATAAATTTTTTTTTTT [XGTACX_site7083]	7.63 ± 0.3
ACTTATATAAAACATTAACACACAAAGAAAAAAAAT [CACACA_site8529]	8.13 ± 0.77
GATACACCAAATAACTGTACGCACGTGTAATATTAA [XGTACX_site3441]	8.77 ± 0.46
AAGAAAAAAAAAATTACACACTGCGCACATACACAA [CACACA_site6721]	8.38 ± 0.61
TATATATATATATATACACACATATATACCTATATA [CACACA_site6085]	9.18 ± 0.41
ATTAAATACATTAACACACACACAAATATATACATA [CACACA_site2881]	7.87 ± 0.37
AATAATAATACTAATCGTACGCATATTTTTCAAACC [XGTACX_site8055]	7.98 ± 0.38
CATTTAACATAAATTAAACACACAATATAATACATT [CACACA_site8333]	7.72 ± 0.61
AAAGATAAAATATTATGTACATATATATATATATAT [XGTACX_site5079]	9.44 ± 0.54
GGGAATATAAGTACACGATAATATGTGATAAGGTCT [CACACA_negctrl_site1502]	8.28 ± 0.86
TTTTATTTTTATTATACACACGCTTAATAAATGCAT [CACACA_site1751]	7.99 ± 0.64
TGTATAAAAGTTTATACACACATTTGATATATTTCA [CACACA_site6606]	7.68 ± 0.3
TATAAAAAAAACAAAAAAAAAAAAAAACAAAAAAAA [TGCATGCA_negctrl_site514]	7.53 ± 0.76
TTTTTTTGTTGTTGTTGTACGATATTTTCCTTATCA [XGTACX_site2375]	7.93 ± 0.54

Sequence	gcPBM binding intensity (ln)
GGGGGGATGAGATATTGTACTTTTTAGGAAAGTGTA [XGTACX_site2835]	9.52 ± 0.11
CGTGGGAGCGGACACACACACACACCCATATATATA [CACACA_site4340]	8.34 ± 0.69
AATTTAAAAGCTTGTGGTACTTTTGCTCTTCCTTTG [XGTACX_site3148]	7.78 ± 0.69
TCAACAAATAAACTTTGTACATATATACAAAATATA [XGTACX_site4447]	7.51 ± 0.33
TATGTATTAAATTTTACACACATGATTCTCTATATG [CACACA_site8720]	7.62 ± 0.53
TATACATATTATATATGTACACATATTATATGTATA [XGTACX_site5851]	7.55 ± 0.042
TAACATGATATATAATGTACATATAAGATATTTATA [XGTACX_site4383]	7.79 ± 0.28
ATGAATTATATATTATGTACATATAATTAAAATATA [XGTACX_site7140]	7.61 ± 0.18
TTTAAAAAAAAAAAAAAAAATTAAATGAATTATTAA [CACACA_negctrl_site1121]	6.92 ± 0.52
ATACAAAAAAGAAGGACACACAGAAGTAACATGTTA [CACACA_site3074]	7.84 ± 0.59
AAATATAATAATATATGTACATATATATATATATAT [XGTACX_site6980]	9.22 ± 0.7
AAAAAAATATATATATATATATATATATATATATAT [TGCATGCA_negctrl_site7]	9.19 ± 0.69
AAAAAAAAAAAAAAAAAAAAAAAAAAAAAAAAAAAT [CACACA_negctrl_site882]	10.4 ± 0.23
AAATTAAATAAATTTACACACTAAAAGTTACCTATA [CACACA_site6623]	7.54 ± 0.53
TTTGTTATTTATTAGTGTACAAAAAAGCATTTCAAA [XGTACX_site8729]	7.96 ± 0.2
TACATTTATAATAATACACACATAAATTTACATTTT [CACACA_site3463]	7.74 ± 0.39
TATGAAAATTAAGTTTGTACACAAGTGGAAAAAAAA [XGTACX_site6129]	8.4 ± 0.42
ATATAAAGAAATTAATTTTTCAACAATAAAAATATA [CACACA_negctrl_site1262]	7.46 ± 0.36
